Measured values taken from patent US8722622B2, “FGF21 conjugates and anti-diabetic uses thereof” (COVX Technologies Ireland, Limited, priority 2010, dated 2014).

Tests used:
[1] = parameters: species or system Swiss-Webster mice; conditions: mouse, in vivo
Method: The PK of FGF21 antibody conjugates were examined in mice after IV or SC administration. […] Antibody conjugates concentrations in serum were determined using an ELISA which captured the FGF21 portion of the antibody conjugates through a monoclonal anti-hFGF21 antibody bound to a 96-well plate. FGF21 antibody conjugates bound to the plate were detected through an anti-hFc monoclonal antibody, and concentrations were determined using a standard curve of the PK dosing solution diluted into serum-containing assay buffer. SC bioavailability was calculated as the ratio of the area-under the curve (AUC) of the SC serum concentration profile divided by the AUC of the IV serum concentration profile.

ob/ob mice [2] = test: Mouse efficacy in ob/ob mice (OGTT, body weight, liver, gene expression); assay type: in vivo
Method: (§1) The efficacy of FGF21 antibodies conjugates was evaluated in two murine obese insulin resistant models—ob/ob mice and high-fat diet-induced obese mice. For both models, male mice (6-8 weeks of age for ob/ob, 12-14 weeks of age for DIO with high-fat diet initiated at 6 weeks of age) were housed 2-4/cage and FGF21 antibody conjugates were administered by SC injection. Body weight was measured daily in the morning. Glucose tolerance was assessed by oral glucose tolerance test. Briefly, mice were fasted for 4-5 hrs in the morning of the day of testing. A basal blood sample was obtained and blood glucose levels were determined using a portable glucometer. Following basal sample, glucose was administered by oral gavage, and blood samples were drawn from 15 to 120 mins thereafter.
(§2) For […] expression, frozen visceral WAT samples collected from the in vivo efficacy studies were homogenized. Total RNA was extracted from the tissue homogenates, and Glut1 and GAPDH mRNA expression was measured using a Quantitect Probe RT-PCR kit and running a quantitative real time PCR reaction in a Taqman machine (Applied Biosystems). The effect of treatment was determined by a fold change in Glut1 mRNA levels normalized by the GAPDH mRNA levels from each sample.

[3] = tested on: Glut1 mRNA expression in differentiated 3T3-L1 adipocytes; test: Glut1 Taqman assay; assay type: cell-based; conditions: 6 hrs
Method: Differentiated 3T3-L1 adipocytes were used to measure the Glut1 mRNA expression by qPCR method. Overnight serum starved day 10-14 differentiated 3T3-L1 adipocytes were treated with compounds for 6 hrs. Total RNA was extracted from these cells, and Glut1 and GAPDH mRNA expression was measured using a Quantitect Probe RT-PCR kit and running a quantitative real time PCR reaction in a Taqman machine (Applied Biosystems®). The bioactivity of the compounds was determined by a fold change in Glut1 mRNA levels normalized by the GAPDH mRNA levels from each sample. EC50 values as measurements of the potency of the compounds were obtained from the dose response curves in the assay.
3T3-L1 adipocytes were seeded at day 8 in 24-well tissue culture plates (Falcon®, Cat#353047), and incubated in DMEM complete medium (10% FBS, 2 mM L-glutamine, 1% P/S) at 37° C., 5% CO2. […] The medium was aspirated, and then RNA extracted from the cells using the RNeasy mini Kit according to the manufacturer's instructions. RNA was measured at A260 nm using the Spectramax® Plus spectrophotometer.

[4] = Serum drug levels in ob/ob model; assay type: in vivo; conditions: ob/ob mice, 10 mg/kg and 3 mg/kg
DIO mice = test: Mouse efficacy in high-fat diet-induced obese (DIO) mice; assay type: in vivo
Method: as §1, §2

ob/ob mice [5] = test: Hyperinsulinemic euglycemic clamp; assay type: in vivo; conditions: SC 10 mg/kg twice a week for one week
Method: The dosing volume was 2 mL/kg per injection. Ab-FGF21ΔH-A129C was injected on day 2 and 5 of the study. Vehicle (30 mM acetate buffer pH4.8) was administered twice a week at a dosing volume of 2 mL/kg per injection on day 2 and day 5 of the study. Mice were treated with ketprofen 2 mg/kg SC and ampicillin 100 mg/kg SC immediately before surgery. Animals (n=8 per group) were randomized according to their day 1 fasted plasma glucose and body weight.
On day 7 of the study, mice were fasted for 16 hrs before the clamp procedure on day 8. On day 8 catheters were exteriorized and animals connected to the infusion lines. 90 mins before the start of the clamp procedure (−90 min), a 6 μCi bolus of [3-3H] glucose was injected into the jugular vein followed by a 0.1 μCi/min constant infusion until the end of the clamp. Blood was collected at −10 min and 0 min for the determination of basal HGP. At time 0 min the variable glucose infusion (50% dextrose) as well as the constant infusion of insulin 20 mU/kg/min was started. Plasma glucose was measured every 10 min from the tail vein and glucose infusion rates were adjusted according to each animals glucose level until a steady state was reached. At time points 170 min and 180 min blood was collected to determine hepatic glucose production (HGP) under clamped conditions. During the clamp procedure, animals were unrestrained and conscious.
Hepatic Glucose Production (HGP) was calculated using the following formula:
HPG=Ra−Rate of cold glucose infusion, where

B1: Ab-L1-FGF21ΔH-D79C: FGF21ΔH-D79C combined with L1 at D79C and conjugated with h38C2 (conjugate)
heavy: EVQLVESGGGLVQPGGSLRLSCAASGFTFSNYWMSWVRQSPEKGLEWVSEIRLRSDNYATHYAESVKGRFTISRDNSKNTLYLQMNSLRAEDTGIYYCKTYFYSFSYWGQGTLVTVSSASTKGPSVFPLAPSSKSTSGGTAALGCLVKDYFPEPVTVSWNSGALTSGVHTFPAVLQSSGLYSLSSVVTVPSSSLGTQTYICNVNHKPSNTKVDKRV[gap - human IgG1 Fc]
light: ELQMTQSPSSLSASVGDRVTITCRSSQSLLHTYGSPYLNWYLQKPGQSPKLLIYKVSNRFSGVPSRFSGSGSGTDFTLTISSLQPEDFAVYFCSQGTHLPYTFGGGTKVEIKRTVAAPSVFIFPPSDEQLKSGTASVVCLLNNFYPREAKVQWKVDNALQSGNSQESVTEQDSKDSTYSLSSTLTLSKADYEKHKVYACEVTHQGLSSPVTKSFNRGEC
chain: PIPDSSPLLQFGGQVRQRYLYTDDAQQTEAHLEIREDGTVGGAADQSPESLLQLKALKPGVIQILGVKTSRFLCQRPCGALYGSLHFDPEACSFRELLLEDGYNVYQSEAHGLPLHLPGNKSPHRDPAPRGPARFLPLPGLPPAPPEPPGILAPQPPDVGSSDPLSMVGPSQGRSPSYAS
[1]; iv, 3 mg/kg
  IV T½: 19 h
[1]; sc
  SC half-life: 20 h
ob/ob mice [2]
  body weight gain: reduce body weight gain
  glucose tolerance: improve glucose tolerance
ob/ob mice [2]; OGTT day 6, SC 10 mg/kg on day 0 & 3
  Mean Glucose AUC (% of vehicle control): 53 % of vehicle control
ob/ob mice [2]; OGTT day 6, SC 10 mg/kg on day 3
  Mean Glucose AUC (% of vehicle control): 53 % of vehicle control
ob/ob mice [2]; OGTT day 6, SC 10 mg/kg on day 5
  Mean Glucose AUC (% of vehicle control): 87 % of vehicle control
ob/ob mice [2]; OGTT day 6, SC 10 mg/kg on day 6
  Mean Glucose AUC (% of vehicle control): 67 % of vehicle control
ob/ob mice [2]; single dose 2 mg/kg (FIG. 6B)
  mean glucose AUC % during OGTT: 86%
ob/ob mice [2]; single dose 10 mg/kg (FIG. 6A)
  Cumulative body weight change, mean body weight: 1.4 g

B2: H125C (conjugate)
heavy: EVQLVESGGGLVQPGGSLRLSCAASGFTFSNYWMSWVRQSPEKGLEWVSEIRLRSDNYATHYAESVKGRFTISRDNSKNTLYLQMNSLRAEDTGIYYCKTYFYSFSYWGQGTLVTVSSASTKGPSVFPLAPSSKSTSGGTAALGCLVKDYFPEPVTVSWNSGALTSGVHTFPAVLQSSGLYSLSSVVTVPSSSLGTQTYICNVNHKPSNTKVDKRV[gap - human IgG1 Fc]
light: ELQMTQSPSSLSASVGDRVTITCRSSQSLLHTYGSPYLNWYLQKPGQSPKLLIYKVSNRFSGVPSRFSGSGSGTDFTLTISSLQPEDFAVYFCSQGTHLPYTFGGGTKVEIKRTVAAPSVFIFPPSDEQLKSGTASVVCLLNNFYPREAKVQWKVDNALQSGNSQESVTEQDSKDSTYSLSSTLTLSKADYEKHKVYACEVTHQGLSSPVTKSFNRGEC
chain: PIPDSSPLLQFGGQVRQRYLYTDDAQQTEAHLEIREDGTVGGAADQSPESLLQLKALKPGVIQILGVKTSRFLCQRPDGALYGSLHFDPEACSFRELLLEDGYNVYQSEAHGLPLHLPGNKSPCRDPAPRGPARFLPLPGLPPAPPEPPGILAPQPPDVGSSDPLSMVGPSQGRSPSYAS
[1]; iv
  IV T1/2: 37 h
[1]; sc
  % SC BioAv: 67%
  SC T1/2: 32 h

B3: Ab-L1-FGF21ΔH-A129C: h38C2 antibody, each arm linked through K99 of SEQ ID NO:26 to L1, each L1 conjugated to Cys129 of SEQ ID NO:9 (conjugate, listed as Homo sapiens)
heavy: ELQMTQSPSSLSASVGDRVTITCRSSQSLLHTYGSPYLNWYLQKPGQSPKLLIYKVSNRFSGVPSRFSGSGSGTDFTLTISSLQPEDFAVYFCSQGTHLPYTFGGGTKVEIKRTVAAPSVFIFPPSDEQLKSGTASVVCLLNNFYPREAKVQWKVDNALQSGNSQESVTEQDSKDSTYSLSSTLTLSKADYEKHKVYACEVTHQGLSSPVTKSFNRGEC
light: EVQLVESGGGLVQPGGSLRLSCAASGFTFSNYWMSWVRQSPEKGLEWVSEIRLRSDNYATHYAESVKGRFTISRDNSKNTLYLQMNSLRAEDTGIYYCKTYFYSFSYWGQGTLVTVSSASTKGPSVFPLAPSSKSTSGGTAALGCLVKDYFPEPVTVSWNSGALTSGVHTFPAVLQSSGLYSLSSVVTVPSSSLGTQTYICNVNHKPSNTKVDKRV[gap - human IgG1 Fc]
chain: PIPDSSPLLQFGGQVRQRYLYTDDAQQTEAHLEIREDGTVGGAADQSPESLLQLKALKPGVIQILGVKTSRFLCQRPDGALYGSLHFDPEACSFRELLLEDGYNVYQSEAHGLPLHLPGNKSPHRDPCPRGPARFLPLPGLPPALPEPPGILAPQPPDVGSSDPLSMVGPSQGRSPSYAS
modifications: FGF21 linked via L1 linker to K99 of each arm
[3]; 3T3-L1 adipocytes, Taqman quantitative real-time PCR, read-out: Glut1 RNA expression EC50
  EC50: 1.72 nM
[3]
  Glut1 induction in 3T3-L1 adipocytes: dose-dependent Glut1 induction
[4]
  serum levels 3, 4, 5 and 6 days post-dose: well maintained
DIO mice
  liver weight: decreased liver weight
ob/ob mice [5]
  effect on body weight: did not demonstrate an effect on body weight
  effect on fasted plasma glucose: no effect on fasted plasma glucose levels
  hepatic glucose production under clamped (hyperinsulinemic) conditions: significantly suppressed HGP
ob/ob mice [5]; basal
  basal hepatic glucose production: did not alter basal hepatic glucose production
ob/ob mice [5]; clamp
  glucose infusion rate (GIR) vs vehicle: significantly increased the glucose infusion rate
